Measured values taken from PubChem BioAssay AID1645887 (National Center for Advancing Translational Sciences (NCATS), 2021).
Where “and” joins values, the source holds several entries; their conditions need not be identical. Identical values can stand only once. Among all 16,000 compounds or so, about 40 (0.2%) were called active. Roughly 1% stayed inconclusive and do not appear here. Calls follow the shape of the dose curve; as a rule, active = well fitted activation curve with a large enough effect; inconclusive = small, poorly fitted or top-dose-only effect, or another doubt; inactive = no such curve, though single readings can be large or run the other way. Some of the results follow.

Target: Rap guanine nucleotide exchange factor 4 (Homo sapiens) (UniProt Q8WZA2)
Test: Validation qHTS for agonist of cAMP-regulated guanine nucleotide exchange factor 4 (EPAC2);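 also: exchange makes BODIPY-GDP fluorescence drop when released from Rap1B; series mostly up to about 150 µM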
Conditions: EPAC2 Rap1B BODIPY-GDP exchange, fluorescence; activation: hits give high values
Summary of the method: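 Fluorescent exchange assay: 100 nM EPAC2 with 250 nM RAP1B-BODIPY-GDP and 50 uM GDP; compound added, 5 min at room temperature, then read (ex 480/em 540 nm) every 5 min for 30 min. Normalized to 6.5 mM cAMP agonist control.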
% is scaled to controls: 0 for no effect and ±100 for the full control effect.

UniProt Q8WZA2, sequence (Q8WZA2 whole entry, looked up): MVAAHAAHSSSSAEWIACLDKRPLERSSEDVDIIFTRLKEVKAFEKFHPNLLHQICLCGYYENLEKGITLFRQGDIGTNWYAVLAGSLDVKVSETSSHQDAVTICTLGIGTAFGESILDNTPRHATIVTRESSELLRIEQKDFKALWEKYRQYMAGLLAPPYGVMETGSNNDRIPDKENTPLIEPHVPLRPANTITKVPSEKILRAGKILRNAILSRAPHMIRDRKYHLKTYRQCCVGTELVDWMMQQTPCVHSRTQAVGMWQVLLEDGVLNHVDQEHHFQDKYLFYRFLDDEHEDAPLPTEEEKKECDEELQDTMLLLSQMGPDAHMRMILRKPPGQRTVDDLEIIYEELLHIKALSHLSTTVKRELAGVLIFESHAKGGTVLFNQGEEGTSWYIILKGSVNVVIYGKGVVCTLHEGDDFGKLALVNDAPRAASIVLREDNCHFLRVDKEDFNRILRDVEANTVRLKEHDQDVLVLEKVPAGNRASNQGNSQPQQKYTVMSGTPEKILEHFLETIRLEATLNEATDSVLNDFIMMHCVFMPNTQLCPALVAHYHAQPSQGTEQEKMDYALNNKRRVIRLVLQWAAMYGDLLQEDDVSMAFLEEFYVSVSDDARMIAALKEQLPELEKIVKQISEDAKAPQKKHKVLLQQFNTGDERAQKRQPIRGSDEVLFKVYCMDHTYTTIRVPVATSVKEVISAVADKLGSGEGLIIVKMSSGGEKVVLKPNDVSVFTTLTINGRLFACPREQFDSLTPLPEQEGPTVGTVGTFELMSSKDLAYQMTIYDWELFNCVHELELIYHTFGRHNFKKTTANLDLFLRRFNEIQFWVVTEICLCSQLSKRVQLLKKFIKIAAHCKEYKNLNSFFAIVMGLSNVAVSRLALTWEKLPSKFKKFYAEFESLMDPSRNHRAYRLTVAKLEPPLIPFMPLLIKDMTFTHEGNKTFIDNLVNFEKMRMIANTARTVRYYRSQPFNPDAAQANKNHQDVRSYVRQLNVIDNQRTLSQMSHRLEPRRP

activation, inactive:
COc1ccc(CNc2ncncc2-c2ccccc2CN(C)C)c(OC)c1 -4.45%, Cc1oc(-c2ccccc2NC(=O)C2CCC2)nc1CNC(=O)c1c(F)ccc(F)c1F -10.3%, COc1cc([C@@H]2c3cc4c(cc3[C@@H](O[C@@H]3O[C@H]5CO[C@@H](C)O[C@@H]5[C@@H](O)[C@H]3O)[C@@H]3COC(=O)[C@@H]23)OCO4)cc(OC)c1O -12.7%, CN(C)c1ccc(-c2nccc(NCc3cccs3)n2)cc1 8.34%, COc1cc(CN2c3ccc(Br)cc3C(=O)CS2(=O)=O)cc(OC)c1 -12.8%, O=[N+]([O-])c1ccc(CSc2ncnc3c2ncn3C2OC(CO)C(O)C2O)cc1 (stereo not given) 0.807%, COc1cccc(Cn2c(=O)c(-c3ccc(Cl)cc3)nc3cncnc32)c1 -18.8%, N#Cc1ccc2c(c1)N(CCCN1CCC(O)CC1)c1ccccc1S2 6.62%, Cn1c(=O)c(CCc2ccccc2)nc2cnc(Nc3ccccc3)nc21 -4.9%, CCC1(c2ccccc2)C(=O)NCNC1=O -11.8% [middle of 4 runs], CCCCc1oc2ccc(NS(C)(=O)=O)cc2c1C(=O)c1ccc(OCCCN(CCCC)CCCC)cc1 -3.52%, CC(=O)N[C@H](C(=O)O)C(C)(C)SN=O -24.7%, CNCCc1cnc(CCC(c2ccccc2)c2ccccc2)[nH]1 -27.6%, CC[C@](N)(CCC(=O)O)C(=O)O -6.21% and 14.2%, CC(=O)OC1CC(O)C(C)(C)C2CC(OC(C)=O)[C@]3(C)C(CC[C@@]4(C)C(c5ccoc5)OC(=O)C5OC534)[C@]12C (stereo not given in full) -2.4%, CCCCCCCCCCCCCCCC[N+](C)(C)Cc1ccccc1 -45.1%, NC(Cn1ccc(=O)c(O)c1)C(=O)O (stereo not given) 0.24%, N#CCCn1c(=O)c(-c2cc(F)cc(F)c2)nc2cnc(Nc3ccccc3)nc21 -1.97%, Cn1cc[nH]c1=S -11.4% and -1.5%, Cc1nc2ccc(C(=O)NCC3CCC4(CCN(Cc5cccnc5)CC4)O3)cc2nc1C (stereo not given) -14.2%, Cc1nc2cnc(N(C)C)nc2n(Cc2ccc(F)cc2)c1=O -12.6%, O=C1[C@H](Cc2ccccc2)NCCCC[C@@H](c2ccc(Cl)cc2)N1Cc1ccc(Cl)cc1 -16.8%, CC1=NS(=O)(=O)c2cc(Cl)ccc2N1 -15.7% [middle of 5 runs], COc1ccc(Oc2ncc3nc(-c4ccc(Cl)cc4)c(=O)n(C[C@H]4CCCO4)c3n2)cc1 11.7%, N#CCCn1c(=O)c(-c2cccs2)nc2cnc(Oc3ccccc3)nc21 -4.87%, COc1cccc(-c2cc(NCc3cnc(C)cn3)ncn2)c1 -14.6%, CN1N=C(C(=O)N2CCOc3ccc(CN4CCCC(C(=O)c5cccnc5)C4)cc3C2)CCC1=O (stereo not given) -13.8%, Cc1cccc(CN2Cc3cccc4c3[C@H](C=CC4)CC2=S)c1 -21%, NC(=O)c1ccc[n+]([C@@H]2OC(COP(=O)([O-])OP(=O)(O)OCC3OC(n4cnc5c(N)ncnc54)C(O)C3O)C(O)C2O)c1 (stereo not given in full) -11.1%, c1csc(CNc2ncncc2-c2ccoc2)c1 4.43%, CC(C)C[C@H](NC(=O)[C@@H](COC(C)(C)C)NC(=O)[C@H](Cc1ccc(O)cc1)NC(=O)[C@H](CO)NC(=O)[C@H](Cc1c[nH]c2ccccc12)NC(=O)[C@H](Cc1cnc[nH]1)NC(=O)[C@@H]1CCC(=O)N1)C(=O)N[C@@H](CCCN=C(N)N)C(=O)N1CCC[C@H]1C(=O)NNC(N)=O -3.27% and -13.5%, COC(=O)[C@@H]1CCCN1C(=O)c1c(OC)cc(=O)n2c1CCN(Cc1ccc3c(c1)OCCO3)CC2 2.94%, Cc1c(C(=O)NC(C)(C)CO)sc2ncnc(NCCN(C)C)c12 -11.8%, COc1ccc(OC)c(-c2cc(Cl)c3c(c2)CC(CNC(=O)c2cccnc2SC)O3)c1 (stereo not given) 11%, Cc1cccc(C(=O)N[C@H]2CC[C@@H](n3cc(C(=O)N4CCCC4)nn3)CC2)c1 1.3%, COCc1ccc(C(=O)N2CCOc3c(cc(-c4cc(C)c5cccc(OC)c5n4)cc3OC)C2)o1 -3.09%, COc1cccc(Cn2c(=O)c(-c3cccs3)nc3cnc(N4CCOCC4)nc32)c1 23.5%, CN1CCN(c2ncc3nc(-c4cc(F)cc(F)c4)c(=O)n(C)c3n2)CC1 -14%, CS(=O)(=O)Nc1cccc(-c2nccc(NCc3ccccc3)n2)c1 -17.7%, COC1=C(OC)C(=O)C(CC=C(C)CCC=C(C)CCC=C(C)CCC=C(C)CCC=C(C)CCC=C(C)CCC=C(C)CCC=C(C)CCC=C(C)CCC=C(C)C)=C(C)C1=O -5.75%, COc1ccc(CN([C@H](CO)CC(C)C)S(=O)(=O)N(Cc2ccccc2)[C@H](CO)CC(C)C)cc1 -27.3%, CC(C)NCC(O)COc1ccc(CC(N)=O)cc1 (stereo not given) -8.32% and -3.55% and -11.1%, COc1ccc(NC(=O)N2CCC3(CC2)CCN(C(=O)c2cc(C(F)(F)F)cc(C(F)(F)F)c2)CC3)cc1 -17.8%, O=C(CNC(=O)c1cccnc1)c1ccc(F)cc1 -17.4%, N[C@H](C(=O)O)C(O)C(O)C(O)CO (stereo not given in full) -9.22%, COc1cc(O)cc(O)c1 -23%, CCC12C(=Nc3c(Cl)cccc31)C[C@@H]1CCN3C(=O)CCC[C@H]2[C@H]13 (stereo not given in full) -24.6%, COc1ccc2[nH]cc(CCNc3nc(-c4ccccc4CN(C)C)nc4ccccc34)c2c1 -12.2%, Oc1cc2c(cc1O)C(c1ccccc1)CNCC2 (stereo not given) -2.78% and -5.44% and -10.3%, CCCCCCCC(=O)OCC(COC(=O)CCCCCCC)OC(=O)CCCCCCC -10.6%, O=C(O)CC/C=C\CC[C@@H]1[C@@H](N2CCCCC2)[C@@H](O)C[C@@H]1OCc1ccc(-c2ccccc2)cc1 -30.4%, CN(C)c1ncc2nc(-c3cc(F)cc(F)c3)c(=O)n(Cc3cccs3)c2n1 -14.7%, COc1ccccc1-c1cncnc1-n1ccnc1 -19.2%, NC(C(=O)O)C(CC(=O)O)c1ccc(Cl)cc1 (stereo not given) 3.48%, Cc1noc(C)c1-c1cc(NC2CCNCC2)ncn1 -11%, CCNc1ncc2nc(-c3cn(C)c4ccccc34)c(=O)n(CCC#N)c2n1 -8.3%, C[C@@]1(C2CCCC2)Cc2cc(OCC(=O)O)c(Cl)c(Cl)c2C1=O 4.48% and -17.5%, O=C(Nc1ccc(Cl)c(C(F)(F)F)c1)[C@@H]1CC=C[C@@H]2CCN(Cc3ccccc3)C(=O)[C@@H]21 -7.13%, COc1cc(=O)n2c(c1C(=O)N(C)Cc1nonc1C)CCN(Cc1cc(C)ccc1C)CC2 6.01%, Cn1c(=O)c2c(ncn2CC2OCCO2)n(C)c1=O -17.6%, CS(=O)(=O)c1ccc(C(O)C(CO)NC(=O)C(Cl)Cl)cc1 (stereo not given) -4.52%, Cc1cnc(CNc2cc(-c3cccc(C#N)c3)ncn2)cn1 -10.9%, COc1ccccc1CCNCc1cc2cccc(C)c2nc1-c1cccs1 -8.14%, COc1ccccc1CN1CC2(CCN(C(=O)c3cccc(F)c3)CC2)C1 -7.88%, FC(F)(F)c1ccccc1-c1nc(N2CCOCC2)c2ccccc2n1 -36.1%, CN(C)CCOc1ccccc1Cc1ccccc1 (tested in a mixture with another compound) -14.2%, CCCC[C@H]1COCCS(=O)(=O)N1Cc1cccc(F)c1 -34.2%, CN1CCC2(CC1)CCN(S(=O)(=O)c1ccccc1)CC2 -22.8%, O=C(C[n+]1ccncc1)c1cccc([N+](=O)[O-])c1 -25.1%, COc1ccc(-n2c(=O)c(-c3ccc(F)cc3)nc3cnc(N4CCOCC4)nc32)cc1 -23%, CC(=O)N(CC(O)CO)c1c(I)c(C(=O)NCCO)c(I)c(C(=O)NCC(O)CO)c1I (stereo not given) 2%, CN1CCN(c2ccnc(-c3ccccc3C(F)(F)F)n2)CC1 -18.1%, CN(C)c1ncc2nc(-c3ccc(F)cc3)c(=O)n(CCC#N)c2n1 -6.55%, CC(C)NC(=O)[C@@H]1C[C@@H](Sc2nc3ccccc3[nH]2)CN1C1Cc2ccccc2C1 9.17%, CN1CCN(c2ncncc2-c2cccnc2)CC1 -8.45%, COc1ccc(CNc2ncncc2-c2cccc(C#N)c2)c(OC)c1 6.14%, COc1cc(-c2cnc3ccccc3c2)cc2c1OCCN(C(=O)Cn1nccc1C)C2 -0.0267%, COc1cc([C@@H]2c3cc4c(cc3C(O[C@@H]3O[C@@H]5CO[C@@H](C)O[C@H]5[C@H](O)[C@H]3O)C3COC(=O)[C@@H]32)OCO4)cc(OC)c1OP(=O)(O)O (stereo not given in full) -12%, O=C(NCCCN1CCOCC1)c1cnn(-c2ncc3c(n2)-c2ccccc2CC3)c1C1CC1 -7.62%, CC(C)(C)[C@H]1CCC(=O)N([C@H](CC#N)Cc2ccccc2)CC1 -27.2%
